Data as given in the RNAGym collection of RNA variant scans (doi:10.7554/elife.90254).
The source gives no read counts; variants with many changes may rest on few reads.

B1: LINE1-mini (parent)
chain: GGCAGAGCUCAACACAGCGUGGCAAAGUGGCUGUGGCUAGACUGCC

Variants of: B1
Assay: self-cleavage, relative activity (ratio to wild type); higher = more cleavage; in vitro, sequencing; the parent is a self-cleaving ribozyme

Variant	self-cleavage
U32A A39U C42A	0.05
G1C U20G G27C	0.04
C10U C31G A39C	0.03
U9A A12G A24U	0.03
G2C G5A C45A	0.04
C23U U28A C31U	0.99
G5A A12G A39G	0.04
A12U A14C C45U	0.04
G1C G21C U32G	0.01
G5C C13U A14C	0.02
G17U G27C G29A	0.15
U9G A11U C15A	0.01
G5U A11C A24C U38A	0.02
C13G A14U C15A G22C	0.03
G2C U9A G21C U38A	0.05
C13A G17U C23U G30A	0.09
C3A G30A U32C	0.27
G2A C13A A24C U38C	0.27
G19A G33A C37G	0.01
G2C U20A G33U	0.06
C3G C23A A39G	0.16
A12U G17C C37A	0.05
A16G G29U G40U	0.16
A11C C15A C18A	0.01

Variant	self-cleavage
G5C A16U U32G U34A C45U	0.01
C8G C18A C23G G29A	0.03
U20G A24C G33U	0.02
A16G U20A A25G C37A A39C	0
C3G C18A A26U U28C C45U	0.02
G7U G21U C31G	0.07
C3G A11U C37U	0.01
G1A G7C A39C	1.28
U9G C15G A24C G30A C45A	0.02
A6U U9C U32G U43A C45U	0.03
C13A C18G G33A U34A	0.12
C8U A12G G17U G33U U38A	0.57
G27C U32C G44U	0.07
A26G U34G G35U	0.02
C3A G21C A26U U28C	0.1
G21C G29A C37A	0.02
A24U U34G G40A	0.04
A12U A14G C42G G44U	0.03
A26C G35A C45A C46U	0.05
A6U G7C U9C	0.04
G7U C10U A12C G21U U34C	0.01
C3A G22U C23A G27A	0.26
G5U U20A U32C	0.02
C8G U20C U28C	0.02

Variant	self-cleavage
A11U G30U C31A C37G	0.02
G7C C15A A16U G29C C46A	0.03
A12U G40A A41C	0.1
A14C A24C G40C	0.01
C8G C13U G40A C46U	0.1
U9C C31A C45G	0.02
G1U C23U A25U G40C	0.05
C3G G29A C37G A39G U43C C46G	0.1
C3G A11U G30A G36U	0
G19A G21U C46G	0.87
A4G U32G G40C	0.03
A26C G30C G36U C37G	0.01
A4C A16C C45G	0.05
C31A U34C C46G	0.03
A12G A41U C42G C45A	0.04
G2U C15A A26U	0.03
C8A G44U C46U	0.02
G5U A6U G7C U20A A39C	0.02
C3A G7A C23U	0.3
G1C C3A G7A C46A	0.21
G5C C18U C45U	0.09
G2U A14U A25G G35U	0.08
G2U A16U G19U C23A A26G C37G	0.19
C10G A14U C15A C18G G33A G40U	0.01

Variant	self-cleavage
C13A A25U C37U	0.01
A11U A26C U34C C42A C46A	0.05
A12G C18A G29A	0.03
U9A A16U U20C C37U C45A	0.08
G17A G22A C23A U32C	0.02
A11G G19C C46U	0.02
G5U C10A G22U C23U U38C	0.01
A6G A12C C45A	0.03
A6G C8U U9A G17A	0.05
U9G A11U G21U G35U	0.03
U9G C13A G17A C23U	0.08
C13A C15U G21C G29U	0.05
C18U G30C A41U G44A C46G	0.01
C10A G27A G29C U38G	0.04
G7A C15G G44U	0.01
C13A G22A C23U	0.09
A6U U9C U34C	0.04
A6G C10G A11C C15G G30A G36A	0.01
U32C U34C G44U	0.05
A12C G35C C37G C45G	0
G27U G29C C42A	0.04
G2A G19U A24G G33A	0.2
G5A A6C G36U U43A	0
A14G C23U G29C	0.35

Variant	self-cleavage
U9C A14C C18U	0.01
G21U A24G G29U A41U	0.15
G2U A12C G22A G29U	0.02
G1C A11U A24U	0.02
C3U C15A G19U G21A A24U G40A	0.05
U28G U38A C46U	0.15
G7A A12U C23A A24C C46U	0.02
U9C C10A C15G U38G	0
G21A A25C C37U	0.04
C8A C15A A25G U28A	0.32
A11C U38G A41C	0
U9A G29U C31U	0.05
A4U A14U C45A	0.04
G1A A16U C46U	0.08
A12G G19U G44C	0.01
C10G C15U A26G G29A C42A	0
A12C G22U C42U	0.03
A12U U20G G22C A41C	0.03
G35U G40C A41G	0.12
G2C A4C C13A U28G G33C	0.01
G7A G17A G19C A41U	0.03
A6U A39U G44C	0.31
G2A C23U C42A C45U	0.9
C8A A11U A25U G27U G30U C37G	0

Variant	self-cleavage
G19A A24U G40C	0.04
A11C A16U G33A	0
C3U C10A G17C C23A G29U	0.04
C18G C42A U43C	0.16
C3U C8U U43G	1.11
A12U C13U U32A G36U	0.03
G21A C31U C42G	0.02
A11U G17U C31U C46A	0.01
G5C G7U U9C U34G	0.05
A14G U20C G30A	0.35
G1C C3A G5U G29C U34A	0.06
G2C U20C G27U C37U U38C	0.01
C10A C15G U20G	0.02
A12G G21A C23A A24G	0.02
G1U C3U U9A A26U G27U G29A	0.24
C10A C15A G17A G30A U43A	0.05
C10U C23G C45G	0.08
C10A C18A C46G	0.01
C10U G17A A25C G30U	0.02
A11U G22A C31A U32C	0.01
C18U G22U G27U G30U C37A	0.14
C23A A25G G40U A41C	0.02
C37A A41U G44A	0.03
C15U A16C G29U G35C	0.81

Variant	self-cleavage
C10U A12U C18U U28G G36C	0.01
C3U G36A C37A	0.11
G2C C3G C8U C10G A12C G36A	0.01
C8A G40A C46U	0.16
A14C G21C C23A A25G	0.03
G2A C10U G21A G22C A24G	1.13
G17A G30A U34A	0.03
G2C C10G G29U	0.04
G29A G30C C42U	2.18
C13A G30A C45U	0.08
C31A C37G A41G	0.01
G19A A24U A26G C37U U38G A39U U43G C45U	0.05
C3A G21U G36U C37A	0.28
G2A U28C G30U A41U	0.3
G29U G33C U38C C45U C46A	0.01
A6U C31U C46A	0.14
C13A U38C U43G C45G	0.02
G1C G7C U9G	0.02
C13A G19U A25C A26C C45G	0.01
A4G G5A C10A G21A	0.09
C10A G29U G35A	0.01
C10G A26G C46A	0.08
G21C C23U A25C	1.51
